# Test results from the supplement of paper PMC8728848.
# The other results are listed elsewhere or left out.
# B1: Pbx2 (Cryptococcus neoformans) (protein)
# chain: AVSPLPSSTELVFYSQKRRRRRICSTATGSLSTPDPTRMTSDPYKRVGMRFSSVPRLLITFLSLLLLVSAAPPCVRFADYDSINQMFIDGGPGTKVLLCPNRLYRLSGPIIFTAADQEIATYGYPTGSERAVLRVEGRNTATAIQGDCRRCARVSVKNLVVDGNRKKLGRMRDFQLATGLVVLGGNEGQSIQNSWIKNPRGFTAIHIREGDKLQCSGARVEKNEIGPVGEEYDPEKDGDDPEMSPLGRPLADGVSIACRDSFIRDNTFRDNTDAAIVVYCSPGTLIHANHIFAQSLSAMAGILMVDSTPFNGDYTGTVVRSNIIDAVSRTIRVGIGIGPTVWSDDTETILTGGSVIGNGLKGRYMGYGIAAAGLKQWTIKDNWDEAKHEGRKSARCFDEPVNPDPIGLLYNRPTMEDCTVQSGFADHDFQYLVCIDGLYDKTNPPKHDPAPLAHDPSPTNAQEDNTVQQDGGDSKSKSIEQPREASDIEAEPSVEKMFSTGSEMMDDVLEHSHQRMHEVIDHLSRRIDILGAASAGKGSGDSKISEVLDPAMSSHLEKLQRKIEHLEFSLRSQIETAIQLRSAIQGWDQEMALVTDWEYDILLDVRHKLELSSYPHDQPLDPRLMRGQSYLNNEAVLVDDHSHPSLEGENLRAMSDRARLNANEEA
# Key:
# Assay in all cases: glycan array binding signal (z-score within array); higher = stronger binding
# Settings in all cases: glycan notation: IUPAC condensed, linker removed
# [1] = molecular target: Man(a1-2)Man(a1-3)[Man(a1-2)Man(a1-6)]Man(a1-6)[Man(a1-2)Man(a1-2)Man(a1-3)]Man(b1-4)GlcNAc(b1-4)GlcNAc
# In short: (§1)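 The Consortium for Functional Glycomics database supplied 3228 glycan arrays, of which those lacking an available protein sequence were dropped. The binding signal, a within-array Z-score, was averaged across arrays of the same protein sequence and across linkers. Negative scores can be read as non-binding.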
# [2] = molecular target: Man(a1-2)Man(a1-3)[Man(a1-6)]Man(a1-6)[Man(a1-2)Man(a1-3)]Man(b1-4)GlcNAc(b1-4)GlcNAc
# In short: as §1
# [3] = molecular target: Man(a1-2)Man(a1-6)[Man(a1-3)]Man(a1-6)[Man(a1-2)Man(a1-2)Man(a1-3)]Man
# In short: as §1
# [4] = molecular target: Man(a1-2)Man(a1-6)[Man(a1-3)]Man(a1-6)[Man(a1-2)Man(a1-2)Man(a1-3)]Man(b1-4)GlcNAc(b1-4)GlcNAc
# In short: as §1
# Man(a1-3)[Man(a1-6)]Man = molecular target: Man(a1-3)[Man(a1-6)]Man
# In short: as §1
# [5] = molecular target: Man(a1-3)[Man(a1-6)]Man(a1-6)[Man(a1-2)Man(a1-3)]Man(b1-4)GlcNAc(b1-4)GlcNAc
# In short: as §1
# [6] = molecular target: Man(a1-3)[Man(a1-6)]Man(a1-6)[Man(a1-3)]Man
# In short: as §1
# [7] = molecular target: Man(a1-3)[Man(a1-6)]Man(a1-6)[Man(a1-3)]Man(b1-4)GlcNAc(b1-4)GlcNAc
# In short: as §1
# [8] = molecular target: Man(a1-3)[Man(a1-6)]Man(b1-4)GlcNAc(b1-4)GlcNAc
# In short: as §1
# [9] = molecular target: Man(a1-3)[Man(a1-6)]Man(b1-4)GlcNAc(b1-4)[Fuc(a1-6)]GlcNAc
# In short: as §1
# Man(a1-6)Man = molecular target: Man(a1-6)Man
# In short: as §1
# Man(b1-4)GlcNAc = molecular target: Man(b1-4)GlcNAc
# In short: as §1
# MurNAc(b1-4)GlcNAc = molecular target: MurNAc(b1-4)GlcNAc
# In short: as §1
# Neu5Ac(a2-3)Gal = molecular target: Neu5Ac(a2-3)Gal
# In short: as §1
# [10] = molecular target: Neu5Ac(a2-3)Gal(b1-3)GalNAc
# In short: as §1
# [11] = molecular target: Neu5Ac(a2-3)Gal(b1-3)GalNAc(b1-3)Gal(a1-4)Gal(b1-4)Glc
# In short: as §1
# [12] = molecular target: Neu5Ac(a2-3)Gal(b1-3)GalNAc(b1-4)[Neu5Ac(a2-3)]Gal(b1-4)Glc
# In short: as §1
# [13] = molecular target: Neu5Ac(a2-3)Gal(b1-3)GalNAc(b1-4)[Neu5Ac(a2-8)Neu5Ac(a2-3)]Gal(b1-4)Glc
# In short: as §1
# [14] = molecular target: Neu5Ac(a2-3)Gal(b1-3)GalNAc6S
# In short: as §1
# [15] = molecular target: Neu5Ac(a2-3)Gal(b1-3)GlcNAc
# In short: as §1
# [16] = molecular target: Neu5Ac(a2-3)Gal(b1-3)GlcNAc(b1-2)Man
# In short: as §1
# [17] = molecular target: Neu5Ac(a2-3)Gal(b1-3)GlcNAc(b1-2)Man(a1-3)[GlcNAc(b1-4)][Neu5Ac(a2-3)Gal(b1-3)GlcNAc(b1-2)Man(a1-6)]Man(b1-4)GlcNAc(b1-4)GlcNAc
# In short: as §1
# [18] = molecular target: Neu5Ac(a2-3)Gal(b1-3)GlcNAc(b1-2)Man(a1-3)[Neu5Ac(a2-3)Gal(b1-3)GlcNAc(b1-2)Man(a1-6)]Man(b1-4)GlcNAc(b1-4)GlcNAc
# In short: as §1
# [19] = molecular target: Neu5Ac(a2-3)Gal(b1-3)GlcNAc(b1-3)Gal(b1-3)GlcNAc
# In short: as §1
# [20] = molecular target: Neu5Ac(a2-3)Gal(b1-3)GlcNAc(b1-3)Gal(b1-4)GlcNAc
# In short: as §1
# [21] = molecular target: Neu5Ac(a2-3)Gal(b1-3)GlcNAc(b1-3)GalNAc
# In short: as §1
# [22] = molecular target: Neu5Ac(a2-3)Gal(b1-3)GlcNAc(b1-4)Gal(b1-4)Glc
# In short: as §1
# [23] = molecular target: Neu5Ac(a2-3)Gal(b1-3)GlcNAc(b1-6)GalNAc
# In short: as §1
# [24] = molecular target: Neu5Ac(a2-3)Gal(b1-3)GlcNAc6S
# In short: as §1
# [25] = molecular target: Neu5Ac(a2-3)Gal(b1-3)[Fuc(a1-4)]GlcNAc
# In short: as §1
binder,measurement,setting,value
B1,glycan array binding signal (z-score),[1],0.647
same,glycan array binding signal (z-score),[2],-0.065
same,glycan array binding signal (z-score),[3],-0.127
same,glycan array binding signal (z-score),[4],0.275
same,glycan array binding signal (z-score),Man(a1-3)[Man(a1-6)]Man,-0.245
same,glycan array binding signal (z-score),[5],-0.295
same,glycan array binding signal (z-score),[6],-0.272
same,glycan array binding signal (z-score),[7],-0.311
same,glycan array binding signal (z-score),[8],-0.346
same,glycan array binding signal (z-score),[9],-0.483
same,glycan array binding signal (z-score),Man(a1-6)Man,-0.516
same,glycan array binding signal (z-score),Man(b1-4)GlcNAc,-0.543
same,glycan array binding signal (z-score),MurNAc(b1-4)GlcNAc,-0.207
same,glycan array binding signal (z-score),Neu5Ac(a2-3)Gal,-0.406
same,glycan array binding signal (z-score),[10],-0.047
same,glycan array binding signal (z-score),[11],-0.324
same,glycan array binding signal (z-score),[12],-0.064
same,glycan array binding signal (z-score),[13],0.088
same,glycan array binding signal (z-score),[14],-0.335
same,glycan array binding signal (z-score),[15],-0.585
same,glycan array binding signal (z-score),[16],1.16
same,glycan array binding signal (z-score),[17],0.343
same,glycan array binding signal (z-score),[18],2.41
same,glycan array binding signal (z-score),[19],-0.518
same,glycan array binding signal (z-score),[20],-0.071
same,glycan array binding signal (z-score),[21],-0.35
same,glycan array binding signal (z-score),[22],0.372
same,glycan array binding signal (z-score),[23],-0.532
same,glycan array binding signal (z-score),[24],-0.196
same,glycan array binding signal (z-score),[25],-0.525
